# Measurements as given in PubChem BioAssay (NCATS).
# Where “and” joins values, the source holds several entries; their conditions need not be identical. Equal values may be shown once. Inconclusive means that the source gave no clear call. Such entries were picked first, then a sample of the others. Potencies of inconclusive entries are doubtful fits and often do not repeat. Calls of active or inactive are those of the source. Calls come from the whole dose curve; as a rule, active = well fitted curve in the direction sought with a large enough effect; inconclusive = small, poorly fitted or top-dose-only effect, or another doubt; inactive = no such curve, though single readings can be large; an effect the other way counts as inactive or inconclusive.
# Columns and labels:
# [1] = qHTS of pediatric cancer cell lines to identify multiple opportunities for drug repurposing: Primary screen for SK-N-MC cells (AID 1347093); details: SK-N-MC viability, CellTiter-Glo luminescence, 48 h; activity change, negative = cytotoxic: at 46 µM (top of the series)
# How it was run: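 Metabolically active cells were quantified by ATP-dependent luminescence (CellTiter-Glo, 15 min at room temperature) following 48 h treatment. Cells had been plated at 500-1,000 per well and settled for 5 h beforehand.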
# [2] = qHTS of pediatric cancer cell lines to identify multiple opportunities for drug repurposing: Primary screen for U-2 OS cells (AID 1347096); note: nearly all actives have a fitted effect of over 50% in size
# How it was run: (§1)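 Cells (500-1,000/well) rested 5 h, then received compounds for 48 h; metabolically active cells were measured by CellTiter-Glo luminescence. Final concentrations spanned up to 46 µM (MIPE, 11-point) or 0.59 nM-46 µM (NPC, 8-point) in primary screens, 11-point in follow-ups.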
# [3] = qHTS of pediatric cancer cell lines to identify multiple opportunities for drug repurposing: Primary screen for SK-N-SH cells (AID 1347098); note: nearly all actives have a fitted effect of over 65% in size;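 for activity change, negative = cytotoxic: DMSO served as neutral control and bortezomib at 2.3 µM as positive control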
# How it was run: as §1
# [4] = qHTS of pediatric cancer cell lines to identify multiple opportunities for drug repurposing: Primary screen for LAN-5 cells (AID 1347100); details: LAN-5 neuroblastoma viability, CellTiter-Glo luminescence, 48 h; activity change, negative = cytotoxic: at 46 µM (top of the series)
# How it was run: as §1
# [5] = qHTS of pediatric cancer cell lines to identify multiple opportunities for drug repurposing: Primary screen for BT-12 cells (AID 1347101); note: nearly all actives have a fitted effect of over 25% in size
# How it was run: as §1
# [6] = qHTS of pediatric cancer cell lines to identify multiple opportunities for drug repurposing: Primary screen for Saos-2 cells (AID 1347097); details: Saos-2 viability, CellTiter-Glo ATP luminescence, 48 h; activity change, negative = cytotoxic: at 46 µM (top of the series); note: nearly all actives have a fitted effect of over 40% in size
# How it was run: (§2)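 500-1,000 cells/well; 5 h pre-incubation 37 °C/5% CO2; compound pinned; 48 h; CellTiter-Glo, 15 min RT; luminescence. MIPE 11-pt from 0.78 nM, NPC 8-pt from 0.59 nM final. Bortezomib 2.3 µM final as positive control.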
# [7] = qHTS of pediatric cancer cell lines to identify multiple opportunities for drug repurposing: Primary screen for NB1643 cells (AID 1347099); note: nearly all actives have a fitted effect of over 50% in size
# How it was run: as §2
# [8] = qHTS of pediatric cancer cell lines to identify multiple opportunities for drug repurposing: Primary screen for BT-37 cells (AID 1347094)
# How it was run: as §2
# [9] = qHTS of pediatric cancer cell lines to identify multiple opportunities for drug repurposing: Primary screen for NB-EBc1 cells (AID 1347095)
# How it was run: as §2
# Potency is the fitted concentration of half-maximal effect; tags give direction and shape of the fitted curve.
smiles,measurement,setting,value
CC(C)(O)c1cc2nc(-c3cnc(N)nc3)nc(N3CCOCC3)c2s1,Potency,[1],active: 0.0118 µM
same,Potency,[2],"inconclusive: 0.296 µM [cytotoxic, full curve]"
same,Potency,[3],active: 8.57 µM
same,Potency,[4],active: 0.372 µM
same,Potency,[5],"inconclusive: 0.385 µM [cytotoxic, full curve]"
CC(C)NCC(O)c1ccc(O)c(O)c1 (centres undefined),Potency,[1],"inconclusive: 33.5 µM [cytotoxic, single point]"
same,Potency,[2],"inconclusive: 18.7 µM [cytotoxic, single point]"
same,Potency,[6],"inconclusive: 11.8 µM [cytotoxic, partial curve] and inconclusive: 26.6 µM [cytotoxic, single point]"
same,Potency,[5],"inconclusive: 17.2 µM [cytotoxic, partial curve]"
CN(C)[C@@H]1C(=O)C(C(=O)NCN2CCCC2)=C(O)[C@@]2(O)C(=O)C3=C(O)c4c(O)cccc4[C@@](C)(O)C3C[C@@H]12 (some centres undefined),Potency,[1],inactive
same,Potency,[6],inactive
same,Potency,[7],inactive
same,Potency,[4],inactive
O=C1CCCC2=C1C(c1[nH]ncc1Cl)N=C(Nc1nc3ccccc3o1)N2 (centres undefined),Potency,[1],"inconclusive: 37.2 µM [cytotoxic, single point]"
same,Potency,[6],"inconclusive: 7.43 µM [cytotoxic, partial curve]"
same,Potency,[3],"inconclusive: 24.1 µM [cytotoxic, partial curve]"
same,Potency,[5],"inconclusive: 27.3 µM [cytotoxic, partial curve, poor fit]"
Cc1cc(O)c2c(c1)C(=O)c1cc(O)cc(O)c1C2=O,Potency,[1],"inconclusive: 9.35 µM [cytotoxic, full curve]"
same,Potency,[6],inactive
COC(=O)Nc1ccc(-c2nc(N3CCOCC3)c3cnn(C4CCN(C(=O)OC)CC4)c3n2)cc1,Potency,[1],"inconclusive: 0.0033 µM [cytotoxic, full curve, poor fit]"
same,Potency,[2],"inconclusive: 4.69 µM [cytotoxic, partial curve]"
same,Potency,[7],"inconclusive: 0.148 µM [cytotoxic, full curve]"
same,Potency,[4],"inconclusive: 0.0093 µM [cytotoxic, full curve, poor fit]"
CC(=O)c1ccc(OCC(=O)N2CCCCC2)cc1,Potency,[1],inactive
same,Potency,[2],inactive
same,Potency,[6],inactive
same,Potency,[4],inactive
CN1CCC[C@@H]1c1cccnc1,Potency,[1],inactive
same,Potency,[6],inactive
same,Potency,[4],inactive
same,Potency,[5],inactive
CC[N+](CC)(CC)CCOc1cccc(OCC[N+](CC)(CC)CC)c1OCC[N+](CC)(CC)CC,Potency,[1],inactive
same,Potency,[6],inactive
same,Potency,[7],inactive
same,Potency,[4],inactive
O=C(CCc1ccc(O)cc1)c1c(O)cc(O)cc1O[C@@H]1O[C@H](CO)[C@H](O)[C@H](O)[C@H]1O,Potency,[1],"inconclusive: 37.2 µM [cytotoxic, partial curve, poor fit]"
same,Potency,[6],inactive
same,Potency,[5],inactive
O=c1c(-c2ccc(O)cc2)coc2cc(OC3O[C@H](CO)[C@H](O)[C@H](O)[C@H]3O)cc(O)c12 (some centres undefined),Potency,[1],active: 2.96 µM
same,Potency,[2],inactive
same,Potency,[7],"inconclusive: 2.35 µM [cytotoxic, full curve, poor fit]"
same,Potency,[4],"inconclusive: 18.7 µM [cytotoxic, partial curve, poor fit]"
same,Potency,[5],"inconclusive: 21.7 µM [cytotoxic, partial curve]"
CN(C)c1ccc(N=NS(=O)(=O)O)cc1,Potency,[1],"inconclusive: 64.4 µM [cytotoxic, single point]"
same,Potency,[6],"inconclusive: 81.1 µM [cytotoxic, single point]"
same,Potency,[4],"inconclusive: 28.8 µM [cytotoxic, single point]"
same,Potency,[5],"inconclusive: 3.35 µM [cytotoxic, full curve]"
CN(c1ncccc1CNc1nc(Nc2ccc3c(c2)CC(=O)N3)ncc1C(F)(F)F)S(C)(=O)=O,Potency,[1],active: 2.96 µM
same,Potency,[2],inactive
same,Potency,[6],active: 6.62 µM
same,Potency,[4],"inconclusive: 1.87 µM [cytotoxic, full curve]"
same,Potency,[5],active: 10.9 µM
COc1cc(Oc2ccnc3cc(OC)c(OC)cc23)ccc1NC(=O)NC(C)c1nccs1 (centres undefined),Potency,[1],"inconclusive: 37.2 µM [cytotoxic, single point]"
same,Potency,[6],"inconclusive: 11.8 µM [cytotoxic, partial curve]"
same,Potency,[3],"inconclusive: 19.2 µM [cytotoxic, partial curve]"
same,Potency,[5],"inconclusive: 27.3 µM [cytotoxic, single point]"
CCN1CCC(n2cc(CNc3cc(Cl)c4ncc(C#N)c(Nc5ccc(F)c(Cl)c5)c4c3)nn2)CC1,Potency,[1],"inconclusive: 1.87 µM [cytotoxic, full curve, poor fit]"
same,Potency,[2],inactive
same,Potency,[3],"inconclusive: 30.4 µM [cytotoxic, single point]"
same,Potency,[5],active: 24.3 µM
NCCO,Potency,[1],inactive
same,Potency,[6],"inconclusive: 61.1 µM [cytotoxic, single point]"
same,Potency,[3],"inconclusive: 12.5 µM [cytotoxic, full curve, poor fit]"
same,Potency,[7],"inconclusive: 21.7 µM [cytotoxic, partial curve, poor fit]"
CN(Cc1cc(Br)cc(Br)c1N)C1CCCCC1,Potency,[1],"inconclusive: 33.5 µM [cytotoxic, single point] and inconclusive: 37.2 µM [cytotoxic, single point]"
same,Potency,[6],"inconclusive: 29.9 µM [cytotoxic, single point] and inconclusive: 3.32 µM [cytotoxic, partial curve]"
same,Potency,[3],inactive
O=C1C(Cl)=C(NCCN2CCOCC2)C(=O)c2ncccc21,Potency,[1],active: 7.43 µM
same,Potency,[2],active: 5.9 µM
same,Potency,[6],active: 2.35 µM
same,Potency,[4],active: 8.33 µM
same,Potency,[5],active: 3.43 µM
O=C(O)c1cc(O)c(O)c(O)c1,Potency,[1],inactive
same,Potency,[6],"inconclusive: 33.5 µM [cytotoxic, single point]"
same,Potency,[3],inactive
same,Potency,[7],inactive
Oc1ccc(C2=Cc3ccc(O)cc3OC2)cc1,Potency,[1],active: 1.66 µM
same,Potency,[3],"inconclusive: 15.2 µM [cytotoxic, partial curve]"
same,Potency,[4],active: 2.35 µM
O=C(O)c1ccccc1NCCc1ccccc1,Potency,[1],"inconclusive: 23.7 µM [cytotoxic, single point]"
same,Potency,[5],inactive
O=C1c2c(O)cc(O)cc2O[C@H](c2cc(O)c(O)c(O)c2)[C@H]1O,Potency,[8],"inconclusive: 30.6 µM [cytotoxic, single point]"
same,Potency,[9],"inconclusive: 33.2 µM [cytotoxic, single point]"
same,Potency,[2],inactive
same,Potency,[3],"inconclusive: 19.2 µM [cytotoxic, partial curve, poor fit]"
same,Potency,[7],active: 23.5 µM
same,Potency,[5],"inconclusive: 30.6 µM [cytotoxic, single point]"
Oc1ccc(O)cc1,Potency,[1],active: 26.6 µM
same,Potency,[7],"inconclusive: 26.6 µM [cytotoxic, single point]"
same,Potency,[5],"inconclusive: 19.5 µM [cytotoxic, single point]"
CCCCCCCCCCCCCCCC(=O)NCCO,Potency,[8],inactive
COc1ccc([C@@H]2CC(=O)c3c(O)cc(O[C@@H]4O[C@H](CO[C@@H]5O[C@@H](C)[C@H](O)[C@@H](O)[C@@H]5O)[C@@H](O)[C@H](O)[C@@H]4O)cc3O2)cc1O,Potency,[1],"inconclusive: 37.2 µM [cytotoxic, single point]"
same,Potency,[7],"inconclusive: 13.2 µM [cytotoxic, partial curve]"
Cc1nc(-c2ccc(OCC(C)C)c(C#N)c2)sc1C(=O)O,Potency,[1],"inconclusive: 37.2 µM [cytotoxic, single point] and inconclusive: 33.5 µM [cytotoxic, single point]"
same,Potency,[3],"inconclusive: 21.5 µM [cytotoxic, partial curve]"
O=C(CCN1CCN(CCO)CC1)N1c2ccccc2Sc2ccc(C(F)(F)F)cc21,Potency,[8],inactive
CC(C)Oc1ccc2c(=O)c(-c3ccccc3)coc2c1,Potency,[1],inactive
same,Potency,[4],"inconclusive: 26.6 µM [cytotoxic, single point] and inconclusive: 6.68 µM [cytotoxic, partial curve, poor fit]"
same,Potency,[5],"inconclusive: 27.6 µM [cytotoxic, single point] and inconclusive: 17.4 µM [cytotoxic, partial curve] and inconclusive: 17.2 µM [cytotoxic, partial curve]"
CCCCC1C(=O)N(c2ccccc2)N(c2ccc(O)cc2)C1=O (centres undefined),Potency,[8],"inconclusive: 24.6 µM [cytotoxic, single point]"
same,Potency,[9],active: 2.99 µM
same,Potency,[2],"inconclusive: 21.1 µM [cytotoxic, single point]"
same,Potency,[3],"inconclusive: 9.7 µM [cytotoxic, partial curve, poor fit]"
same,Potency,[4],active: 5.96 µM
same,Potency,[5],active: 5.5 µM
CCCCCN=C(N)NN=Cc1c[nH]c2ccc(OC)cc12,Potency,[8],"inconclusive: 9.68 µM [cytotoxic, full curve]"
same,Potency,[9],"inconclusive: 1.05 µM [cytotoxic, full curve]"
same,Potency,[2],"inconclusive: 18.7 µM [cytotoxic, partial curve]"
same,Potency,[6],"inconclusive: 6.62 µM [cytotoxic, full curve]"
same,Potency,[7],"inconclusive: 9.35 µM [cytotoxic, partial curve]"
same,Potency,[5],"inconclusive: 13.7 µM [cytotoxic, partial curve]"
O=C(O)C=Cc1ccc(O)c(O)c1,Potency,[8],"inconclusive: 27.3 µM [cytotoxic, partial curve, poor fit]"
same,Potency,[9],"inconclusive: 16.6 µM [cytotoxic, partial curve]"
same,Potency,[2],"inconclusive: 29.6 µM [cytotoxic, single point]"
same,Potency,[3],active: 24.1 µM
same,Potency,[7],active: 20.9 µM
same,Potency,[5],"inconclusive: 34.3 µM [cytotoxic, single point]"
CN(C(=O)C(Cl)Cl)c1ccc(OC(=O)c2ccco2)cc1,Potency,[1],inactive
same,Potency,[3],inactive
